Test results reported in PubChem BioAssay AID1963434 (Molecular Pharmacology Branch, DTP, NCI, 2024).
Some entries of the source have several records that differ or are many. This is not the full list of results. There may be further records. Results that share an entry are repeated measurements in other runs, samples, wells, individuals or studies. Additions like (4×) count equal records among those shown. Dates in brackets are months of testing.

Test system: 755483-174-R-J1-PDC complex spheroid growth, percent test/control
Experiment: Anticancer human tumor 755483-174-R-J1-PDC patient-derived rhabdomyosarcoma cell line growth inhibition [Asc]
Settings: for viability, T/C: stronger effect = lower value; for IC50: compound alone
Protocol: Multicellular complex tumor spheroid response to apoptosis pathway targeting inhibitors Alrizomadlin, Pelcitoclax, and Dasminapant in combination with a variety of drugs and investigational agents in selected tumor cell lines
The MDM2 inhibitor alrizomadlin, the Bcl-2/Bcl-xL inhibitor pelcitoclax, and the IAPs inhibitor dasminapant were evaluated both individually and in combination with standard of care and investigational anticancer small molecules within a complex spheroid model of solid tumors. . Complex spheroids include a stromal component modeled by human endothelial cells (HUVEC) and fibroblasts modeled by human mesenchymal stem cells (MSCs). The concentration ranges selected for each drug and investigational agent were based upon clinically achievable concentrations if the clinical Cmax of the agent was known.
Compounds. The drugs and investigational agents: alrizomadlin (APG-115; NSC831270), pelcitoclax (APG-1252; NSC835773), dasminapant (APG-1387;NSC834197), TAK-243 (NSC785004), copanlisib (NSC809693), olaparib (NSC753686), talazoparib (NSC767125), cobimetinib (NSC 768068), eltanexor (KPT-8602, NSC 794443), abemaciclib (NSC 768073), sotorasib (NSC818433), adagrasib (NSC 831453), MRTX-1133 (NSC 836407), Iadademestat (ORY1001, NSC 806812), and RMC-4630 (NSC839698), were obtained from the NCI Developmental Therapeutics Program Chemical Repository. The FDA-approved anticancer drug set is available from the Developmental Therapeutics Program at https://dtp.cancer.gov/organization/dscb/obtaining/available plates.htm. […] The stock solutions were prepared in dimethyl sulfoxide (DMSO, Sigma-Aldrich, St. Louis, MO, cat. D2650) at 800-fold the tested concentration and stored at -70 degrees C prior to their use. All drugs and investigational agents were tested over a range starting from a high concentration at or near the clinical Cmax and decreasing in half-log increments. If the clinical Cmax for an agent had not been determined, the highest concentration tested was 10 microM.
The patient-derived cancer (PDC) cell lines include five colon adenocarcinomas: 186277-243-T-J2-PDC, 616215-338-R-J1-PDC, 439559-082-T-J2-PDC, 463943-066-T-J2-PDC, and 519858-162-T-J1-PDC; three pancreatic carcinomas: 323965-272-R-J2-PDC, 521955-158-R6-J3-PDC, and 521955-158-R2-J5-PDC; two uterine sarcomas: 327498-152-R-J2-PDC and 993429-296-R-J1-PDC; two rhabdomyosarcomas: 755483-174-R-J1-PDC and 772245-204-R-J1-PDC; two soft tissue sarcomas: 126254-015-R-J1-PDC and 494315-158-R-J1-PDC; two malignant fibrous histiocytomas: 317291-083-R-J1-PDC and 596521-263-R-J1-PDC; two breast carcinomas: 171881-019-R-J1-PDC and 885512-296-R-J2-PDC; and one ovarian carcinoma: 6556581-035-R-J-PDC were obtained from the NCI PDMR, (https://pdmr.cancer.gov). The established cell lines HSSY-2 synovial sarcoma (RRID:CVCL 8719), SYO-1 synovial sarcoma (RRID:CVCL_7146), MPNST malignant peripheral neural sheath tumor were obtained from the Sloan Kettering Institute. The following established cell lines were purchased from the American Type Culture Collection (ATCC, Manassas, VA), Sor the received from the NCI repository:, PANC-1 pancreatic carcinoma (CRL-1469, RRID:CVCL_0480), OVCAR-5 ovarian carcinoma (RRID:CVCL_1628), OVCAR-8 ovarian carcinoma (RRID:CVCL_1629), , MCF-7 breast carcinoma (CRL-12584, RRID:CVCL_0031), MDA-MB-231 breast carcinoma (CRL-12532, RRID:CVCL_0062), NCI-H1876 small cell lung carcinoma (CRL-5902, RRID:CVCL_1503), NCI-H510A small cell lung carcinoma (HTB-184, RRID:CVCL_1565), NCI-H1417 (CRL-5869, RRID:CVCL_1469), and NCI-H196 small cell lung carcinoma (CRL-5823, RRID:CVCL_1509). Dr. Peter Houghton (Greehey Children's Cancer Research Institute, University of Texas Health Science Center, San Antonio, TX) provided Rh-18 rhabdomyosarcoma (RRID:CVCL_1659). Pooled donor human umbilical vein endothelial cells (HUVEC, Lonza, cat. CC-2519) and human mesenchymal stem cells (hMSC, Lonza, cat. PT-2501) were purchased from Lonza (Walkersville, MD).
Cell Culture. […]
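Further: spheroids exposed to compounds for seven days before readout.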

Row | SMILES | viability, T/C (compound alone 0.01 µM) | viability, T/C (compound alone 0.0316 µM) | viability, T/C (compound alone 0.316 µM) | viability, T/C (compound alone 1 µM) | IC50 (run of 10/03/2022) | viability, T/C (compound alone 0.03 µM) | viability, T/C (compound alone 0.0949 µM) | viability, T/C (compound alone 0.3 µM) | viability, T/C (compound alone 0.949 µM) | viability, T/C (compound alone 3 µM) | viability, T/C (compound alone 0.1 µM) | viability, T/C (compound alone 3.16 µM) | IC50 (run of 09/27/2022)
1 | CNC(C)C(=O)NC1CN(S(=O)(=O)c2cccc(S(=O)(=O)N3CCC4CCC(C(=O)NC(c5ccccc5)c5ccccc5)N4C(=O)C(NC(=O)C(C)NC)C3)c2)CCC2CCC(C(=O)NC(c3ccccc3)c3ccccc3)N2C1=O (stereo not given) | 62.1%, 48.2% [2022-09] and 64.3, 51.3, 48.9, 53.7, 68.8, 53.1, 51.7, 59.6, 67.5, 58.2, 55.3, 53.5, 33.9% [2022-10] | 45%, 51.7% [2022-09] and 39.7, 30.8, 28.5, 48.7, 56.9, 45.3 (2×), 46.3, 47.5, 59.2, 46.9, 17.9, 47.1% [2022-10] | 35.3%, 27.3% [2022-09] and 29.3, 30.9, 30.8, 17, 36.5 (2×), 23.6, 45.1, 40.9 (2×), 42.2, 26.9, 33% [2022-10] | 44.6%, 21.5% [2022-09] and 24.4, 16.6, 21.1, 16.4, 22.6, 27.6, 25.6, 27.8, 37.1, 26.6, 30.3, 35.6, 34.3% [2022-10] | 20.1 nM, 27.5 nM, 47.4 nM, 17.2 nM, 31 nM, 63.6 nM, 21.5 nM, 18.7 nM, 11.7 nM, < 10 nM | – | – | – | – | – | – | – | –
2 | CCN1C(C(=O)NC23CCC(C(=O)O)(CC2)CC3)C(c2cccc(Cl)c2F)C2(C(=O)Nc3cc(Cl)ccc32)C12CCCCC2 (stereo not given) | – | – | – | – | – | 84.6, 54.7, 84, 92.3, 74.3, 101, 100 (2×), 83.3, 65.3, 83.5, 71.5, 93, 85.2% [2022-09] and 86.4% [2022-10] | 72.2, 84.5, 110, 87.3, 89.8, 88.5, 93, 82.6, 89.6, 97.8, 84.1, 81.8, 90.8, 78.9% [2022-09] and 72.4% [2022-10] | 78.6, 80, 111, 112, 89.8, 74.2, 85.3, 77.4, 90.3, 65.8, 103, 80.2, 72.5, 94.3% [2022-09] and 83% [2022-10] | 104, 59.2, 89.6, 94.3, 67.7, 75, 101 (2×), 87.1, 84.9, 78.4, 115, 77.5, 88.1% [2022-09] and 82.3% [2022-10] | 78.3, 83.9, 80, 74.7, 106, 73.8, 82.8, 68.9, 117, 84.9, 96.5, 73.2, 92.2, 111% [2022-09] and 68.7% [2022-10] | – | – | –
3 | Cc1c(S(C)(=O)=O)c(-c2cc(F)cc(N3CCN(c4ccc(NS(=O)(=O)c5ccc(NC(CCN6CCC(C(=O)OCCCP(=O)(O)O)CC6)CSc6ccccc6)c(S(=O)(=O)C(F)(F)F)c5)cc4)CC3)c2)c(-c2ccc(Cl)cc2)n1C(C)C (stereo not given) | – | – | 61.5, 33.9, 38.2, 35.8, 35.9, 52.3, 28.6, 46.8, 43.7, 44.3, 41.1, 54.1, 49.4, 58.1% | 47.7, 34, 40.5, 42.1, 50.5, 50.9, 39.3, 33.9, 54.4, 38.3, 57.5, 44.4, 53.5, 30.8% | – | – | – | – | – | – | 52.3, 49.6, 65.9, 43.7, 54.8, 59.1, 53.1, 48.3, 51.3, 45.8, 36.5, 59.6, 40, 48.6% | 27.3 (2×), 36.8, 26, 32.6, 51.3, 30.7, 39.9, 38, 33.8, 47.3, 23.7, 27.2, 26.1% | 752 nM, < 100 nM, 201 nM, 425 nM, 133 nM, 595 nM, 100 nM, 375 nM
